According to a collection of fitness landscapes (doi:10.1126/science.1257360):
Some of the results follow.

B1: PhoQ; a variant is named by its letters at X, in order, P23837 (parent)
chain: MKKLLRLFFPLSLRVRFLLATAAVVLVLSLAYGMVALIGYSVSFDKTTFRLLRGESNLFYTLAKWENNKLHVELPENIDKQSPTMTLIYDENGQLLWAQRDVPWLMKMIQPDWLKSNGFHEIEADVNDTSLLLSGDHSIQQQLQEVREDDDDAEMTHSVAVNVYPATSRMPKLTIVVVDTIPVELKSSYMVWSWFIYVLSANLLLVIPLLWVAAWWSLRPIEALAKEVRELEEHNRELLNPATTRELTSLVRNLNRLLKSERERYDKYRTTLTDLTHSLKTPLXXLQXXLRSLRSEKMSVSDAEPVMLEQISRISQQIGYYLHRASMRGGTLLSRELHPVAPLLDNLTSALNKVYQRKGVNISLDISPEISFVGEQNDFVEVMGNVLDNACKYCLEFVEISARQTDEHLYIVVEDDGPGIPLSKREVIFDRGQRVDTLRPGQGVGLAVAREITEQYEGKIVAGESMLGGARMEVIFGRQHSAPKDE

Variants of: B1
Experiment: enrichment ratio after two sorts for PhoP signalling (ratio (wild type AVST 3.29)); higher = more functional
Conditions: with PhoP (E. coli)

| Variant | enrichment ratio |
| --- | --- |
| YFKS | ≤ 0.25 |
| FWPC | ≤ 0.25 |
| ASTL | 20.2 |
| MTHF | 1.74 |
| GYTS | ≤ 0.25 |
| RVGT | ≤ 0.25 |
| SGML | 17.4 |
| VDTH | ≤ 0.25 |
| IPYN | ≤ 0.25 |
| FQKN | ≤ 0.25 |
| CSLP | ≤ 0.25 |
| NKVR | ≤ 0.25 |
| VEVW | ≤ 0.25 |
| FWGV | ≤ 0.25 |
| DTMI | ≤ 0.25 |
| QAPN | ≤ 0.25 |
| YEPH | ≤ 0.25 |
| HVLG | ≤ 0.25 |
| LPIN | ≤ 0.25 |
| GYTL | ≤ 0.25 |
| GRDC | ≤ 0.25 |

| Variant | enrichment ratio |
| --- | --- |
| SYYM | ≤ 0.25 |
| NSHE | ≤ 0.25 |
| TPLQ | ≤ 0.25 |
| FVLE | ≤ 0.25 |
| ECKR | ≤ 0.25 |
| KNWV | ≤ 0.25 |
| YFWA | ≤ 0.25 |
| HKSD | ≤ 0.25 |
| GNVH | ≤ 0.25 |
| FRNV | ≤ 0.25 |
| PFIG | ≤ 0.25 |
| TCKT | ≤ 0.25 |
| QSIF | ≤ 0.25 |
| WFID | ≤ 0.25 |
| KLAH | ≤ 0.25 |
| LRCV | ≤ 0.25 |
| WRFV | ≤ 0.25 |
| HADD | ≤ 0.25 |
| WYST | ≤ 0.25 |
| NQST | ≤ 0.25 |
| RPCI | ≤ 0.25 |

| Variant | enrichment ratio |
| --- | --- |
| FVVC | ≤ 0.25 |
| GDVI | 20 |
| EIMT | ≤ 0.25 |
| SLEA | ≤ 0.25 |
| PMWA | ≤ 0.25 |
| ALVF | 0.451 |
| VAIC | ≤ 0.25 |
| IAYK | ≤ 0.25 |
| SKSM | 14 |
| FTTR | ≤ 0.25 |
| SRKW | ≤ 0.25 |
| TFIF | ≤ 0.25 |
| LLKE | ≤ 0.25 |
| YMQE | ≤ 0.25 |
| QDKH | ≤ 0.25 |
| QTVL | ≤ 0.25 |
| NWQR | ≤ 0.25 |
| DLEK | ≤ 0.25 |
| HACR | ≤ 0.25 |
| IDMT | ≤ 0.25 |
| FGDF | ≤ 0.25 |

| Variant | enrichment ratio |
| --- | --- |
| HTQR | ≤ 0.25 |
| EPYR | ≤ 0.25 |
| HTSY | ≤ 0.25 |
| WDRR | ≤ 0.25 |
| YYVY | ≤ 0.25 |
| WTCD | ≤ 0.25 |
| PMWT | ≤ 0.25 |
| YEDR | ≤ 0.25 |
| AIHP | ≤ 0.25 |
| DKEE | ≤ 0.25 |
| GGDH | ≤ 0.25 |
| EQCP | ≤ 0.25 |
| AVCY | 0.936 |
| HEDR | ≤ 0.25 |
| INFN | ≤ 0.25 |
| RYWG | ≤ 0.25 |
| KLYC | ≤ 0.25 |
| RGTT | ≤ 0.25 |
| TGKL | ≤ 0.25 |
| YFWG | ≤ 0.25 |
| VGHP | ≤ 0.25 |
